{
  "source": "PubChem BioAssay AID651687",
  "about": "(Broad Institute, 2012)",
  "note": "The whole screen tested about 350,000 compounds, of which about 600 (0.17%) were called active. The inconclusive results got no clear call from the source; some entries with a clear call stand among them for comparison.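 Rule for the calls: active = every replicate shows inhibition of at least 40%; inconclusive = mean inhibition at least 40% but some replicate below; inactive = the rest.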",
  "data": [
    {"experiment": "inhibitors of PGC1a acetylation signal, primary screen, cell-based, U2OS, AlphaScreen, inhibitor mode (AID 651687);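 note: 0% = neutral control wells and 100% = positive control wells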", "details": "AlphaScreen anti-acetyl-lysine, at 15.6 µM, hits give high values, with virally co-expressed GCN5 acetyltransferase", "values": [
      {"molecule": "CCCC[C@@H](O)C1=C(COc2ccccc2)C[C@H]2C(=O)N(Cc3ccccc3)C(=O)[C@H]2[C@H]1CO", "inhibition": "inactive: 0.393%"},
      {"molecule": "Cc1ccc(C(=O)Nc2nc(=O)n(C(=O)CC(C)C)s2)cc1", "inhibition": "inconclusive: 47.5%"},
      {"molecule": "c1cncc(CNc2ncnc3ccc(-c4ccoc4)cc23)c1", "inhibition": "active: 55.1%"},
      {"molecule": "COc1ccc(OCCCC(=O)OCC(=O)Nc2c(C)nn(-c3ccccc3)c2C)cc1", "inhibition": "active: 85.2%"},
      {"molecule": "CSc1nn(-c2ccc(C(=O)OC(C(=O)NC(N)=O)C(C)C)cc2)c(=S)s1", "note": "(configuration not stated)", "inhibition": "inconclusive: 44.9%"},
      {"molecule": "CCc1ccc(NC(=O)Nc2ccncc2)cc1", "inhibition": "inconclusive: 48.9%"},
      {"molecule": "CN1C(=O)c2cc(NC(=O)c3ccc(F)cc3)ccc2OC[C@H]2O[C@@H](CC(=O)NC3CCC3)CC[C@H]21", "inhibition": "inactive: -3.05%"},
      {"molecule": "COc1ccc(N(C(=O)Cn2nnc3ccccc32)C(C(=O)NCc2ccco2)c2cccnc2)cc1", "note": "(configuration not stated)", "inhibition": "inactive: -5.13%"},
      {"molecule": "CCC(=O)N1CCC2(CC1)CN(Cc1nccs1)[C@@H](CO)c1c2c2ccc(OC)cc2n1C", "inhibition": "inactive: 30.3%"},
      {"molecule": "C[C@@H]1CN([C@H](C)CO)C(=O)c2cccc(NC(=O)c3ccc(-c4nccs4)cc3)c2O[C@@H]1CN(C)Cc1ccc(Oc2ccccc2)cc1", "inhibition": "inactive: -15.4%"},
      {"molecule": "C=CCNC(=S)N1CCN(CCN=CC2=C(O)CC(c3ccco3)CC2=O)CC1", "note": "(configuration not stated)", "inhibition": "inconclusive: 40.2%"},
      {"molecule": "C[C@@H]1CCCCO[C@@H](CN(C)C(=O)c2ccccc2)[C@@H](C)CN([C@@H](C)CO)C(=O)c2cc(NS(=O)(=O)c3ccc(F)cc3)ccc2O1", "inhibition": "inactive: 11.1%"},
      {"molecule": "CN(Cc1cnc2nc(N)nc(N)c2n1)c1ccc(C(=O)N[C@@H](CCC(=O)O)C(=O)O)cc1", "inhibition": "inconclusive: 46.8%"},
      {"molecule": "COc1ccc(S(=O)(=O)Nc2ccc3c(c2)C(=O)N([C@@H](C)CO)C[C@@H](C)[C@@H](CN(C)C)OCCCC[C@@H](C)O3)cc1", "inhibition": "inactive: -22%"},
      {"molecule": "C[C@H](CO)N1C[C@H](C)[C@H](CN(C)Cc2ccc(C(=O)Nc3ccccc3N)cc2)Oc2c(NC(=O)c3ccncc3)cccc2C1=O", "inhibition": "inconclusive: 51.6%"},
      {"molecule": "C=C1C(=O)[C@]23C[C@H]1CCC2[C@]1(C)CCC[C@@](C)(C(=O)O)C1C[C@@H]3O", "note": "(some centres not stated)", "inhibition": "inconclusive: 47.3%"},
      {"molecule": "N=c1c(C(=O)NCCc2ccccc2)cc2c(=O)n3ccccc3nc2n1CCCN1CCOCC1", "inhibition": "inactive: -4.05%"},
      {"molecule": "Cc1ccccc1S(=O)(=O)NCC[C@@H]1CC[C@H](NC(=O)C2CCOCC2)[C@@H](CO)O1", "inhibition": "inconclusive: 44.9%"},
      {"molecule": "C[C@@H]1CN([C@@H](C)CO)S(=O)(=O)c2ccc(C#C[C@@H](C)O)cc2O[C@H]1CN(C)Cc1ccc(-c2ccccc2)cc1", "inhibition": "inactive: 0.0835%"},
      {"molecule": "C[C@@H]1CN([C@H](C)CO)C(=O)c2cc(-c3ccccc3)cnc2O[C@H]1CN(C)C(=O)Cc1ccccn1", "inhibition": "inconclusive: 51.4%"},
      {"molecule": "COc1cc(C(=O)Oc2ccccc2/C=N/NC(=O)c2ccc(C)cc2)cc(OC)c1OC", "inhibition": "inactive: 49.1%"},
      {"molecule": "CC1(C)CC(=O)C(C=NCC(N)=O)=C(O)C1", "inhibition": "inconclusive: 52.2%"},
      {"molecule": "Cc1cc(C)c(NC(=O)c2ccc(S(=O)(=O)N(C)C)cc2)c(C)n1", "inhibition": "active: 50.4%"},
      {"molecule": "CC1CCCN(S(=O)(=O)c2ccc3c(c2)n(C)c(=O)c(=O)n3C)C1", "note": "(configuration not stated)", "inhibition": "inconclusive: 49.1%"},
      {"molecule": "C=CCn1c(SCC(=O)Nc2ccc(C(=O)O)cc2)nnc1-c1cccnc1", "inhibition": "inconclusive: 40.3%"},
      {"molecule": "C[C@@H]1CN([C@@H](C)CO)C(=O)CCCn2cc(nn2)CO[C@H]1CN(C)Cc1ccncc1", "inhibition": "inconclusive: 51.2%"},
      {"molecule": "COc1ccc(S(=O)(=O)NCCC(=O)NCc2ccc(F)cc2)cc1", "inhibition": "active: 80.1%"},
      {"molecule": "O=C(O)C1CCCN1S(=O)(=O)c1ccc(Br)s1", "note": "(configuration not stated) (tested in a mixture with another compound)", "inhibition": "inconclusive: 42.3%"},
      {"molecule": "CCCCCOC(=O)Cc1c(O)c2ccccc2n(C)c1=O", "inhibition": "inconclusive: 42.8%"},
      {"molecule": "CSc1nc2c(c(=O)[nH]c(=O)n2C)n1Cc1ccccc1", "inhibition": "inconclusive: 43.1%"},
      {"molecule": "O=C(c1ccccn1)N1C[C@@H]2[C@H](c3ccccc31)[C@@H](CO)N2C(=O)C1CC1", "inhibition": "inactive: 2.38%"},
      {"molecule": "Cc1ccc(S(=O)(=O)N(C)C[C@@H]2Oc3cc(C#Cc4ccncc4)ccc3S(=O)(=O)N([C@H](C)CO)C[C@H]2C)cc1", "inhibition": "inconclusive: 41.5%"},
      {"molecule": "CCC(=O)N(CCc1ccc(S(N)(=O)=O)cc1)C1CC(=O)N(c2ccc(OC)cc2)C1=O", "note": "(configuration not stated)", "inhibition": "inactive: 7.29%"},
      {"molecule": "O=C(NC1=CC(=O)c2ccccc2C1=O)c1ccccc1", "inhibition": "active: 80.8%"},
      {"molecule": "CCOC(=O)C(=Cc1ccc(OCc2ccc([N+](=O)[O-])cc2)c(OC)c1)C(=O)OCC", "inhibition": "active: 57.1%"},
      {"molecule": "CC(C)OC(=O)c1c(F)c(F)c(N2CCOCC2)c(F)c1F", "inhibition": "active: 57.4%"},
      {"molecule": "Cc1cc(C)c(C(=O)/C=C/c2ccc(C(C)C)cc2)c(=O)[nH]1", "inhibition": "inconclusive: 64.4%"},
      {"molecule": "Cc1cccc(N2CCN(CC3CCCCC3)CC2)c1C", "inhibition": "inconclusive: 46.7%"},
      {"molecule": "COC(=O)C(=Cc1ccc(OCc2ccc([N+](=O)[O-])cc2)c(OC)c1)C(=O)OC", "inhibition": "inconclusive: 16.8%"},
      {"molecule": "N#Cc1ccc(Cn2c(=O)c(C#N)c3n(c2=O)CCC3)cc1", "inhibition": "inconclusive: 47.1%"},
      {"molecule": "C[C@H]1CN([C@@H](C)CO)C(=O)Cc2cc(NC(=O)Cc3cn(C)c4ccccc34)ccc2O[C@@H]1CN(C)C(=O)Nc1cccc2ccccc12", "inhibition": "inactive: -3.13%"},
      {"molecule": "O=C(OCc1nc2ccsc2c(=O)[nH]1)c1cccc(S(=O)(=O)N2CCOCC2)c1", "inhibition": "inconclusive: 41.7%"},
      {"molecule": "Cc1ccc(-c2nc(NC(=O)c3nn(C)cc3[N+](=O)[O-])sc2C)cc1", "inhibition": "active: 95.7%"},
      {"molecule": "Cc1ccc(S(=O)(=O)Nc2ccc3cn[nH]c3c2)cc1", "inhibition": "inactive: 16.8%"},
      {"molecule": "COc1ccc(-c2onc(C)c2-c2ccc(C(=O)OC(C)C)o2)c(O)c1", "inhibition": "active: 74.1%"},
      {"molecule": "CCN(CC)c1ccc(C(=C2C=CC(=[N+](CC)CC)C=C2)c2ccc(N(CC)CC)cc2)cc1", "inhibition": "active: 83.4%"},
      {"molecule": "CC(C)C(=O)Nc1cccc(NC(=S)NC(=O)c2ccc([N+](=O)[O-])cc2)c1", "inhibition": "inconclusive: 47.8%"}
    ]}
  ]
}
